# Experimental data taken from PubChem BioAssay AID485294 (National Center for Advancing Translational Sciences (NCATS), 2010).
# About 150 (0.041%) of roughly 370,000 compounds were called active. Inconclusive results, whose numbers are uncertain, are shown with a selection of clear calls. Calls come from the whole dose curve; as a rule, active = well fitted inhibition curve with a large enough effect; inconclusive = small, poorly fitted or top-dose-only effect; inactive = flat fitted curve, though single readings scatter. Potencies of inconclusive entries are left out as doubtful fits.
# Target: Beta-lactamase (Escherichia coli (strain K12)) (UniProt P00811)
# Chain of UniProt P00811 (P00811 whole entry, looked up): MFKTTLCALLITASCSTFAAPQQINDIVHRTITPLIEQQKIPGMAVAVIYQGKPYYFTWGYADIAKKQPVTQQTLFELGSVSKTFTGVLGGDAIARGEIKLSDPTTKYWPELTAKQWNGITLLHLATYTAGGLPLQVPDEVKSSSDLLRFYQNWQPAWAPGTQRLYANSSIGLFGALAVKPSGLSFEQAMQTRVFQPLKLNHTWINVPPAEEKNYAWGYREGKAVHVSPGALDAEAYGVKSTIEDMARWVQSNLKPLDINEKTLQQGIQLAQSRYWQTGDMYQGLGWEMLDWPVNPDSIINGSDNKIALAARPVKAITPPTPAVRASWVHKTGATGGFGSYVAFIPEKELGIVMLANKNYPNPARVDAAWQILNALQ
# Assay: qHTS Inhibitors of AmpC Beta-Lactamase (assay with detergent); note: nearly all actives have a fitted effect of over 25% in size
# Settings: AmpC hydrolysis of nitrocefin, absorbance 480 nm, 0.01% Triton; series mostly up to 114 µM
# In short: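 20 mM phosphate pH 7.0 + 0.01% (detergent screen) or 0.0001% Triton X-100; 5.3 nM AmpC reagent; cpd preinc 15 min RT; nitrocefin (800 uM stock) to start; A480 q20 s × 4 min; Activity was normalised to no-enzyme and no-compound control wells.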
# Potency is the fitted concentration of half-maximal effect; tags give direction and shape of the fitted curve.
row,SMILES,Potency
1,COc1cccc(C2C(C#N)=C(N)Oc3cc(C)n(Cc4ccccn4)c(=O)c32)c1OC (stereo not given),"inconclusive [inhibitor, partial curve]"
2,Cc1onc(-c2ccccc2Cl)c1C(=O)Nc1cccc2cccnc12,"inconclusive [inhibitor, full curve]"
3,Clc1ccc(Oc2cnns2)cc1Cl,"inconclusive [inhibitor, partial curve]"
4,COc1ccccc1NC(=O)Nc1cccc(C)n1,"inconclusive [inhibitor, partial curve]"
5,Cc1ccccc1NC(=O)c1ccc(CN(c2ccccc2)S(=O)(=O)c2ccccc2)cc1,"inconclusive [inhibitor, full curve]"
6,COc1cc(C(=O)Nc2ccc(Nc3ccccc3)cc2)cc(OC)c1OC,inactive
7,COc1cccc(CNC(=O)c2ccccc2NC(=O)C2=C(C)OCCS2)c1OC,"inconclusive [inhibitor, partial curve, poor fit]"
8,O=C1C2CCCN2C(=O)N1CCCCN1CCN(c2cccc(C(F)(F)F)c2)CC1 (stereo not given),"inconclusive [inhibitor, full curve, poor fit]"
9,CCNc1nc(NC#N)nc(SCC(=O)OCC)n1,"inconclusive [inhibitor, full curve, poor fit]"
10,CC(=O)c1ccc(S(=O)(=O)N2CCn3cccc3C2c2ccc(C)cc2)cc1 (stereo not given),inactive
11,CC(C)N1CCN(c2ccc(OC[C@H]3CO[C@](Cn4cncn4)(c4ccc(Cl)cc4Cl)O3)cc2)CC1,"inconclusive [inhibitor, full curve, poor fit]"
12,COc1ccc(OC)c(CN2CCC(Cc3ccccc3)CC2)c1,inactive
13,CCOCCCNC(=O)c1c(N)n(-c2ccc3c(c2)OCO3)c2nc3ccccc3nc12,inactive
14,Brc1ccc(Nc2nc(-c3cccnc3)cs2)cc1,inactive
15,Cc1nc(-n2nc(C)c(Cc3ccccc3Cl)c2C)sc1C(=O)Nc1ccccc1F,inactive
16,N#CCCN(Cc1cccnc1)C(=O)c1ccc(S(=O)(=O)N2CCOCC2)cc1,"inconclusive [inhibitor, full curve, poor fit]"
17,O=C1/C(=C/C=C/c2ccco2)SC(=S)N1NS(=O)(=O)c1ccccc1,"inconclusive [inhibitor, single point]"
18,Cc1cc(NC(=O)CSc2nccn2-c2cccc(C)c2C)no1,"inconclusive [inhibitor, full curve]"
19,COc1cc(CNC(=O)c2ccc(Cn3nc(C)c(Cl)c3C)o2)cc(OC)c1,"inconclusive [inhibitor, single point]"
20,COc1ccccc1-c1cc(C(=O)N2CCN(S(=O)(=O)c3ccc(C)cc3)CC2)[nH]n1,inactive
21,O=C(CCl)N1c2ccccc2OCC1c1ccccc1 (stereo not given),inactive
22,Cc1ccc(S(=O)(=O)N2CCN(C(=O)COC(=O)c3ccccc3Cl)CC2)c(C)c1,"inconclusive [inhibitor, full curve, poor fit]"
23,CCc1sc(C(=O)Nc2nccs2)cc1C,inactive
24,COc1ccccc1CNC(=O)COC(=O)Cc1ccc(Cl)cc1,"inconclusive [inhibitor, full curve, poor fit]"

row,SMILES,Potency
1,Cc1noc(C)c1CSCC(=O)Nc1nc2ccc(F)cc2s1,"inconclusive [inhibitor, single point]"
2,O=C(NCc1ccco1)c1ccc2c(c1)C(=O)c1ccccc1-2,inactive
3,O=C(OCc1ccccc1Cl)c1ccccc1C(=O)c1ccccc1,inactive
4,CC(C)Cn1c(-c2ccco2)nc2c(c(=O)c3ccccc3n2C)c1=O,inactive
5,CCOC(=O)N1CCN(c2c(N3CCc4ccccc4C3)c(=O)c2=O)CC1,"inconclusive [inhibitor, full curve, poor fit]"
6,Cc1ccc(/C=C/c2onc(C)c2S(=O)(=O)N2CCC(C(=O)N3CCC(N(C)C(C)C)CC3)CC2)cc1,inactive
7,CCC(=O)Nc1ccccc1C(=O)OCC(=O)c1ccccc1,inactive
8,COc1ccc(CNC(=O)CN2C(=O)C(C)N(c3ccc(C)cc3)C2=O)cc1 (stereo not given),"inconclusive [inhibitor, partial curve]"
9,O=c1oc(-c2cccs2)nc2scc(-c3cccs3)c12,inactive
10,CCOC(=O)c1cc(-c2ccccc2)sc1NC(=O)C(C)C,"inconclusive [inhibitor, full curve, poor fit]"
11,CC1=CC(c2ccc(Cl)cc2)n2nc(NC(=O)c3ccccc3)nc2N1 (stereo not given),inactive
12,COc1cc(NC(=O)COC(=O)CNC(=O)c2cc(C)cc(C)c2)c(C)cc1[N+](=O)[O-],"inconclusive [inhibitor, full curve, poor fit]"
13,Cc1cc(C)nc(N/N=C/c2cc(C)n(CC(F)(F)F)c2C)n1,inactive
14,Cc1cccc(N2CCN(c3ccc(NC(=O)/C=C(/C(=O)O)c4ccccc4)cc3)CC2)c1,"inconclusive [inhibitor, full curve, poor fit]"
15,COc1ccc(S(=O)(=O)NCc2ccccn2)cc1NC(=O)c1ccc(Cl)cc1,"inconclusive [inhibitor, partial curve, poor fit]"
16,COc1ccc(NC(=O)c2nc3ccccc3s2)cc1,"inconclusive [inhibitor, partial curve]"
17,Cc1ccc(S(=O)(=O)N/N=C\c2cn(CC(N)=O)c3ccccc23)cc1C,"inconclusive [inhibitor, full curve, poor fit]"
18,COc1ccc(/C=N/NC(=O)c2cccc(OC(F)(F)C(F)F)c2)cc1O,"inconclusive [inhibitor, full curve, poor fit]"
19,CCOC(=O)c1ccccc1NC(=O)CSc1nc2cn(CC)nc2c(=O)n1Cc1ccc(Cl)cc1,inactive
20,Brc1ccc(-c2noc(CCc3ccccc3)n2)o1,"inconclusive [inhibitor, full curve, poor fit]"
21,CCOC(=O)N1CCN(C(c2ccc(F)cc2)c2sc3nc(C)nn3c2O)CC1 (stereo not given),"inconclusive [inhibitor, full curve]"
22,CCOc1ccc(C2CC(=O)N(c3cccc(F)c3)C3=C2C(=O)OC3)cc1 (stereo not given),inactive
23,CN(C)c1nc(Oc2ccc(=O)n(-c3ccccc3)n2)nc(N2CCOCC2)n1,"inconclusive [inhibitor, full curve, poor fit]"
24,O=C(NCC1CCCO1)C1CCCN(c2ncccn2)C1 (stereo not given),"inconclusive [inhibitor, partial curve]"

row,SMILES,Potency
1,COC(=O)CSc1nnc(-c2cccnc2)n1C,"inconclusive [inhibitor, full curve, poor fit]"
2,CC(=O)Nc1c2c(nn1-c1ccccc1C)CSC2,"inconclusive [inhibitor, full curve, poor fit]"
3,COc1ccccc1C(=O)OCC(=O)c1cccc([N+](=O)[O-])c1,"inconclusive [inhibitor, partial curve, poor fit]"
4,COCCn1c(SCC(=O)Nc2ccc(OC)cc2)nc2c(oc3ccccc32)c1=O,"inconclusive [inhibitor, single point]"
5,CCOc1cc(NC(=O)C2CC2)c(OCC)cc1NC(=O)c1cccnc1,"inconclusive [inhibitor, partial curve, poor fit]"
6,O=c1[nH]c(SCc2ccc(Cl)cc2)nc2c1CCC2,"inconclusive [inhibitor, full curve, poor fit]"
7,O=C(O/N=C1\CCCc2ccccc21)c1ccc(F)cc1,"inconclusive [inhibitor, full curve]"
8,Cc1ccc(NC(=O)c2ccc(=O)[nH]n2)cc1C,inactive
9,NC(=O)C1CNc2ccccc2O1 (stereo not given),"inconclusive [inhibitor, full curve, poor fit]"
10,Cc1cccc(-c2noc(CCC(=O)NCCc3ccccc3)n2)c1,"inconclusive [inhibitor, full curve, poor fit]"
11,COCCSc1nnc(-c2cnccn2)o1,"inconclusive [inhibitor, full curve]"
12,CN(Cc1ccccc1)C(=O)CCS(=O)(=O)c1ccc2c(c1)n(C)c(=O)c(=O)n2C,"inconclusive [inhibitor, full curve]"
13,O=C(NC(Cc1ccc(F)cc1)C(=O)O)c1ccccc1 (stereo not given),"inconclusive [inhibitor, full curve]"
14,CO/N=C\C(=N\Nc1ccc(OC)cc1)C(=O)c1ccccc1,"inconclusive [inhibitor, partial curve]"
15,C=CCSc1cc(C)nc2c(-c3ccc(Cl)cc3)c(C)nn12,"inconclusive [inhibitor, full curve, poor fit]"
16,O=Cc1cnc(N2CCOCC2)nc1,"inconclusive [inhibitor, full curve, poor fit]"
17,Clc1cccc(N/N=C(\Cc2nc3ccccc3[nH]2)c2ccccc2)c1,inactive
18,CCOc1ccc(-n2nnnc2SCC(=O)N2CCOCC2)cc1,inactive
19,CCCCn1nc(C(=O)Nc2nc3c(s2)CCCC3)c2ccccc2c1=O,"inconclusive [inhibitor, full curve, poor fit]"
20,Cc1cccc(-c2nnc(SCC(=O)Nc3ncccn3)n2C)c1,"inconclusive [inhibitor, full curve]"
21,COc1cc2c(cc1OC)CN(c1nc(CN3CCCCC3)nc3sc4c(c13)CCCC4)CC2,inactive
22,CN(C)C(=O)c1ccc(NC(=O)COC(=O)c2cc(S(=O)(=O)N(C)C)ccc2N2CCCC2)cc1,"inconclusive [inhibitor, full curve, poor fit]"
